Measured values: PubChem BioAssay AID1460 (National Center for Advancing Translational Sciences (NCATS), 2008)
The campaign covered roughly 270,000 compounds. About 5,800 (2.1%) were called active. The shares of active, inactive and inconclusive entries below differ from those in the screen. The call rests on the fitted dose curve; in most records, active means well fitted inhibition curve with a large enough effect; inconclusive means small, poorly fitted or top-dose-only effect; inactive means flat fitted curve, though single readings scatter. Potencies beside an inconclusive call are fits to weak or partial responses and may not hold up.
Further: nearly all actives have a fitted effect of over 55% in size.
Potency means the concentration at half of the fitted maximal effect; tags describe the fitted curve by direction and shape.

The compounds below were run against Microtubule-associated protein tau (Homo sapiens) (UniProt P10636) (assay: qHTS for Inhibitors of Tau Fibril Formation, Thioflavin T Binding). Conditions: recombinant tau K18 P301L (four-repeat tau fragment), heparin-induced fibrillization, ThT fluorescence; series mostly up to 57.4 µM.
Chain of UniProt P10636 (P10636 whole entry, looked up, the tested form may be a part): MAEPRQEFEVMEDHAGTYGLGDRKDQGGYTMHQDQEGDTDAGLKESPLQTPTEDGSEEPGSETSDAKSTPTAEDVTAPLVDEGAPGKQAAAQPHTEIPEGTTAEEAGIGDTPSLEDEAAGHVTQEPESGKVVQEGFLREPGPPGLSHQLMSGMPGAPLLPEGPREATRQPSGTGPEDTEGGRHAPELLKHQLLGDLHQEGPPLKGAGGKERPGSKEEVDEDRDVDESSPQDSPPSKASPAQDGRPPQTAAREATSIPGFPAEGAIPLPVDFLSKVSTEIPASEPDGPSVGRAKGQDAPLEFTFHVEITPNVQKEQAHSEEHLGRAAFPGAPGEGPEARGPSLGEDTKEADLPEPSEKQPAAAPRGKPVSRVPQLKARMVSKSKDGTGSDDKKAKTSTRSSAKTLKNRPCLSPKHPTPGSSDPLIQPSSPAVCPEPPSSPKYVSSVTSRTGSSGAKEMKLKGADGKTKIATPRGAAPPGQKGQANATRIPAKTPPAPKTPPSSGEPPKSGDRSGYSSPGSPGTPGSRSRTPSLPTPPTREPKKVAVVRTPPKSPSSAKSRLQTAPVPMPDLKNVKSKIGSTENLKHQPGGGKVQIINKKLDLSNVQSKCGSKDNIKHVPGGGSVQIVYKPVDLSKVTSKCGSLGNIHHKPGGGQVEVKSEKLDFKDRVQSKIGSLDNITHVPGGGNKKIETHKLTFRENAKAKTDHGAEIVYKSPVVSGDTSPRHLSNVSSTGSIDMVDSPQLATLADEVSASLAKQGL
Method in brief: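 In this qHTS, human K18 P301L tau is incubated with compound and heparin for 6 hr at 37 C, and Thioflavin T fluorescence then reports fibril load.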
With `CCc1ccc(-n2nc(CO)c(C(=O)NC)n2)cc1` the Potency was “inactive”. `CCN1CCN(c2ncc3c(n2)CCN(Cc2ccccc2C)C3)CC1` was tested, and the Potency was “inactive”. With `CCOC(=O)COc1ccc(Br)cc1/C=C/c1[nH]c(=O)[nH]c(=O)c1[N+](=O)[O-]` the Potency was inconclusive: 17.8 µM [inhibitor, partial curve]. `O=C(Cn1nnc(-c2ccccc2)n1)N/N=C/c1cccc([N+](=O)[O-])c1O` was tested, and the Potency was active: 10 µM. With `Cc1nn2c(C)c(C(=O)NCCc3ccccc3)cnc2c1-c1ccccc1` the Potency was inconclusive: 25.1 µM [inhibitor, partial curve, poor fit]. `Cc1nnc(NC(=O)CSc2ccc(-c3ccccn3)nn2)s1` was tested, and the Potency was inconclusive: 39.8 µM [inhibitor, single point]. For `CCOC(=O)c1ccc(NC(=O)CC(=O)Nc2ccc3nc4n(c(=O)c3c2)CCCCC4)cc1`, the Potency was “inactive”. With `Cc1ccccc1NC(=O)/C(C#N)=C/c1ccc(Cl)cc1Cl` the Potency was inconclusive: 4.47 µM [inhibitor, full curve]. For `N#CCSc1nc2ccc(N3CCCCC3)cc2c(=O)n1Cc1ccccc1`, the Potency was inconclusive: 10 µM [inhibitor, partial curve, poor fit]. For `Cc1ccc(NCC(=O)N/N=C/c2cc(O)ccc2[N+](=O)[O-])cc1`, the Potency was active: 14.1 µM. `O=C(CSc1n[nH]c(-c2cc(Cl)ccc2Cl)n1)NCCN1C(=O)CSC1=O` was tested, and the Potency was “inactive”. `CCCCc1ccc(NC(=S)NCc2cccc(OC)c2)cc1` was tested, and the Potency was “inactive”. For `Cc1cc(C(=O)Nc2cccc([N+](=O)[O-])c2)c(C)o1`, the Potency was inconclusive: 10 µM [inhibitor, partial curve]. For `N#C/C(=N\Nc1ccc(S(=O)(=O)N2CCCCCC2)cc1)C(N)=S`, the Potency was active: 14.1 µM. For `Cc1ccc2nc(-c3ccc(NC(=O)COc4ccc(Br)cc4Br)cc3)sc2c1`, the Potency was inconclusive: 2.24 µM [inhibitor, full curve]. For `CNC(=O)c1c(NC(=O)/C=C/c2ccccc2)sc2c1CCC2`, the Potency was active: 14.1 µM. With `Cc1cc(-c2ccccc2)nc2oc(C(=O)NN)c(N)c12` the Potency was inconclusive: 35.5 µM [inhibitor, partial curve, poor fit]. In the case of `O=S(=O)(N/N=C/c1cccnc1)c1ccc(Cl)c(Cl)c1`, the Potency was inconclusive: 35.5 µM [inhibitor, single point]. For `CCOc1cc(/C=C(/C#N)C(=O)Nc2ccc(O)cc2)cc(Br)c1O`, the Potency was active: 8.91 µM. `COc1ccc(NC(=O)COC(=O)Cc2c(F)cccc2Cl)cc1OC` was tested, and the Potency was “inactive”. With `COC(=O)c1ccc(/C=C/C(=O)c2ccc(OC)c(OC)c2)cc1` the Potency was inconclusive: 17.8 µM [inhibitor, partial curve]. `O=C(C1CCC1)N1CCc2cc(S(=O)(=O)NC3CCCc4ccccc43)ccc21` (stereo unspecified) was tested, and the Potency was “inactive”. `Cc1cccc(-c2nc3nc(C)cc(NC(C)c4ccccc4)n3n2)c1` (stereo unspecified) was tested, and the Potency was “inactive”. In the case of `COc1cccc(OC)c1C(=O)Nc1ccc(N2CCCCC2)cc1`, the Potency was inconclusive: 35.5 µM [inhibitor, single point]. `O=C(NCc1ccc(F)cc1)C(=O)NCC(c1ccc2c(c1)OCO2)N1CCOCC1` (stereo unspecified) was tested, and the Potency was “inactive”. `CCOC(=O)C1=C(C)Nc2ncnn2C1c1c[nH]c2ccccc12` (stereo unspecified) was tested, and the Potency was “inactive”. In the case of `O=c1cc(Nc2ccc3c(c2)OCCO3)[nH]c(=O)n1-c1ccc(Br)cc1`, the Potency was inconclusive: 17.8 µM [inhibitor, single point]. In the case of `COc1cccc(CN2CCNC(=O)C2CC(=O)NCCc2ccccn2)c1` (stereo unspecified), the Potency was inconclusive: 31.6 µM [inhibitor, single point]. For `COc1ccc(CSC2=NCCN2)cc1Cl`, the Potency was inconclusive: 14.1 µM [inhibitor, partial curve]. `O=C1c2[nH]nc(-c3ccc(F)cc3)c2C(c2ccccc2F)N1c1ccccc1` (stereo unspecified) was tested, and the Potency was inconclusive: 39.8 µM [inhibitor, single point]. `COc1cccc(NC(=S)N2CCN(c3ccc([N+](=O)[O-])cc3)CC2)c1` was tested, and the Potency was inconclusive: 4.47 µM [inhibitor, full curve]. `O=C(Nc1ccccc1)N1CCN(c2nc3ccccc3s2)CC1` was tested, and the Potency was inconclusive: 11.2 µM [inhibitor, partial curve]. `CC(C)C(OC(=O)c1cccc(S(=O)(=O)NCC(F)(F)F)c1)C(=O)NC(N)=O` (stereo unspecified) was tested, and the Potency was “inactive”. For `Cn1c(/N=C/c2c[nH]c3ccccc23)nc2ccccc21`, the Potency was inconclusive: 5.01 µM [inhibitor, partial curve, poor fit]. With `CSc1ncc2c(n1)-c1ccccc1N(Cc1ccccc1)S2(=O)=O` the Potency was “inactive”. In the case of `COC(=O)c1ccc(NC(=O)C2CCN(S(C)(=O)=O)CC2)cc1`, the Potency was inconclusive: 44.7 µM [inhibitor, single point]. `COc1ccccc1N1CCN(C/C(O)=C(\C#N)c2nc(-c3ccccc3)cs2)CC1` was tested, and the Potency was inconclusive: 31.6 µM [inhibitor, partial curve]. In the case of `CSc1ccc(CCNC(=O)CCCn2c(=O)c3cccn3c3ccccc32)cc1`, the Potency was inconclusive: 17.8 µM [inhibitor, partial curve]. In the case of `CCOc1ccc(C(=O)Nc2cc3c(cc2N2CCCC2)n(C)c(=O)c(=O)n3C)cc1OCC`, the Potency was inconclusive: 10 µM [inhibitor, partial curve]. For `c1ccc(-c2ccc(-c3ccccn3)nn2)nc1`, the Potency was “inactive”. For `C/C(CC(=O)Nc1ccc(N(C)C)cc1)=N\NC(=O)c1cnccn1`, the Potency was inconclusive: 25.1 µM [inhibitor, partial curve]. With `CCn1c(=O)c2cc(C(=O)N(C)c3ccccc3F)sc2c2ccccc21` the Potency was “inactive”. `COc1ccc(-c2nc3sc(CCNS(=O)(=O)c4ccccc4)c(C)n3n2)cc1` was tested, and the Potency was “inactive”. `O=C(Nc1nnc(Cc2c[nH]c3ccccc23)s1)c1ccc(Cl)cc1Cl` was tested, and the Potency was inconclusive: 20 µM [inhibitor, single point]. In the case of `CCCOc1ccc(C(=O)Nc2cc3c(cc2N2CCCCC2)n(C)c(=O)n3C)cc1`, the Potency was inconclusive: 11.2 µM [inhibitor, partial curve]. In the case of `Cc1cc2c(cc(C(=O)N3CCC(C(=O)N4CCCC4)CC3)n2Cc2c(F)cccc2Cl)o1`, the Potency was inconclusive: 22.4 µM [inhibitor, partial curve].
